Consider 6 sequences from PMC4081100.

This is a selection; strong and weak results do not stand in their true shares. For part of these data: At the low end of the ranking the order means little. The list shows a part of the results. For part of these data: The exact form of the protein is not confirmed.

Holding throughout (assay): universal protein binding microarray (PBM)
Common to all, as to settings: transcription factors of Arabidopsis thaliana; high values mean tight binding; most listed sequences are background and not binding sites; double strand, one strand shown

Assay [1] addresses T1, GST-ANAC092(1-176) (UniProt Q9FKA0).
T1 sequence: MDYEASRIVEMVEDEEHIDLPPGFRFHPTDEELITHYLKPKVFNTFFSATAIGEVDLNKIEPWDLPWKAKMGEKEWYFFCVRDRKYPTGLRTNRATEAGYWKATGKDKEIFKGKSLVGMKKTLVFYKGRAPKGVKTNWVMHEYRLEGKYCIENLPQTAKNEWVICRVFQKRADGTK

Assay [2] has as its target GST-NTL6(1-168) (UniProt Q9SCK6).
Assay [3] has as its target T2, GST-ANAC019 NAC domain (UniProt Q9C932).
T2 sequence: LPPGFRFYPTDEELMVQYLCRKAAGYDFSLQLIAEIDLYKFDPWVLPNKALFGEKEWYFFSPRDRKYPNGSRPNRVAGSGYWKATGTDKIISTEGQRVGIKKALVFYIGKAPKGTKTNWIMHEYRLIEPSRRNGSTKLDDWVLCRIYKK

For assay [4], the target named is T3, GST-ANAC055(1-171) (UniProt Q9LDY8).
T3 sequence: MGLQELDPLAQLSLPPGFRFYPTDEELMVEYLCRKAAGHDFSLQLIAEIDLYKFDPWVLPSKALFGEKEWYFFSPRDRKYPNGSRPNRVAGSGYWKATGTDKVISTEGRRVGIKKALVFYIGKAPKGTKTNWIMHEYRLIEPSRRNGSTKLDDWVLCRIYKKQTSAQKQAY

The target in assay [5] is T4, GST-ATAF1 NAC domain (UniProt Q39013).
T4 sequence: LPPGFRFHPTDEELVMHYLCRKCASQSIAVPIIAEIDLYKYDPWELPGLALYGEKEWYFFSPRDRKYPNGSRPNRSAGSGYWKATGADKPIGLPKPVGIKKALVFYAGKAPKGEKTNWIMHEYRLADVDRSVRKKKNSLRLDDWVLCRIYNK

For assay [6], the target named is T5, GST-ANAC092(1-285) full length (UniProt Q9FKA0).
T5 sequence: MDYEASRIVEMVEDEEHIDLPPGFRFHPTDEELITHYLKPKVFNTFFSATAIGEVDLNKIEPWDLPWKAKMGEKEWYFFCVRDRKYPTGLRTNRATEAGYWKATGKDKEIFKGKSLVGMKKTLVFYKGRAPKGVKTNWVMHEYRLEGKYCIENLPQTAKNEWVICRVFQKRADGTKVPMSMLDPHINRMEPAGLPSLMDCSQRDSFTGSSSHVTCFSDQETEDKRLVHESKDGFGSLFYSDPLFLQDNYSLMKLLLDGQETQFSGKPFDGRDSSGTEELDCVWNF

For assay [7], the target named is T6, GST-NAP(1-166) (UniProt O49255).
T6 sequence: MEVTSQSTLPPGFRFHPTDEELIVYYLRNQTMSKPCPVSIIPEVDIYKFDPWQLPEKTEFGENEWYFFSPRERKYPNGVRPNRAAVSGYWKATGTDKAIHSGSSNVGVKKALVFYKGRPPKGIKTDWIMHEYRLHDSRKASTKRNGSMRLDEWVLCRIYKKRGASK

Assay [8] deals with T7, GST-NST2(1-184) (UniProt Q9M274).
T7 sequence: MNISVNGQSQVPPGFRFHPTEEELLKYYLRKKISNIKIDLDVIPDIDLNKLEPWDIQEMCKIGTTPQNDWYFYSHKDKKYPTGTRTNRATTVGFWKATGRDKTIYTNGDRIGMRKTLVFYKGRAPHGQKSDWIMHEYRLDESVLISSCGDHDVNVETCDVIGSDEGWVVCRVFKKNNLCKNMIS

Assay [9] addresses T8, GST-NTL8 NAC domain (UniProt Q9XIN7).
T8 sequence: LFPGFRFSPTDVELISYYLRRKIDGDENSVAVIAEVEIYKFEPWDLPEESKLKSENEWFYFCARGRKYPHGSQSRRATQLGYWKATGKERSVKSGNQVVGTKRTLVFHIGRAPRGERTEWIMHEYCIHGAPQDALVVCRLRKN

The target in assay [10] is T9, GST-SND1(1-203) (UniProt Q9LPI7).
T9 sequence: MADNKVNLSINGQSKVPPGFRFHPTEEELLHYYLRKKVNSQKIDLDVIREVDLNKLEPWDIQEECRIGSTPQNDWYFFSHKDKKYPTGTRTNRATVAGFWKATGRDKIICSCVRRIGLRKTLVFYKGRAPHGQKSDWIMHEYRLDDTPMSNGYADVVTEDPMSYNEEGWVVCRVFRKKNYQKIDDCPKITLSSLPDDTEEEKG

The target in assay [11] is T10, GST-VND3 NAC domain (UniProt Q9FH59).
T10 sequence: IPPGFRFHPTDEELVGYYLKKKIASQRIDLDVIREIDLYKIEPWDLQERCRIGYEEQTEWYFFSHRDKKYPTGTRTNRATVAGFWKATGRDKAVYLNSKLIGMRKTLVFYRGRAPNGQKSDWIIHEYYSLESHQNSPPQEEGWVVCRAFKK

For assay [12], the target named is T11, GST-VND7 NAC domain (UniProt Q9C8W9).
T11 sequence: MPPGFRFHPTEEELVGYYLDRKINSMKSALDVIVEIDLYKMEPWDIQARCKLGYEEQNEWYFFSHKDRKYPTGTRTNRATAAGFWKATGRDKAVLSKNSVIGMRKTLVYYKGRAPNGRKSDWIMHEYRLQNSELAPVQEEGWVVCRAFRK

The target of assay [13] is T12, GST-VOZ2 (Arabidopsis thaliana) (UniProt Q9SLB9).
T12 sequence: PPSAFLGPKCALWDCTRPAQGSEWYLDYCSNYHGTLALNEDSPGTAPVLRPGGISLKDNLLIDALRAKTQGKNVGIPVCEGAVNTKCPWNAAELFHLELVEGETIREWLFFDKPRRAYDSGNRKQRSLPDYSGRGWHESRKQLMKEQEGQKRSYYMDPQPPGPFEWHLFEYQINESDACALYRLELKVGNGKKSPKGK

Assay [14] deals with GST-WRKY1(266-371) (UniProt Q9SI37).

For the sequence TCTGACCA, the binding signal is -0.119 E-score in assay [1]; -0.0722 E-score in [2]; -0.0772 E-score in [3]; -0.0606 E-score in [4]; -0.073 E-score in assay [5]; -0.102 E-score in assay [6]. The binding signal in [7] was -0.133 E-score; in assay [8], -0.0231 E-score; in assay [9], -0.184 E-score; in [10], -0.0429 E-score; in [11], -0.0254 E-score; in assay [12], -0.044 E-score. The binding signal was -0.04 E-score in assay [13] and 0.456 E-score in assay [14].

In the case of CGGTCAAC, the binding signal in assay [1] is 0.00951 E-score; in assay [2], 0.00336 E-score; in [3], 0.00915 E-score; in assay [4], -0.0475 E-score; in assay [5], -0.012 E-score; in assay [6], -0.0218 E-score. The binding signal in assay [7] is 0.118 E-score; in [8] it was -0.0121 E-score; in assay [9] it was -0.00537 E-score; in assay [10], -0.0556 E-score; in assay [11], -0.0761 E-score; in [12], -0.0616 E-score. In addition, the binding signal stood at 0.00959 E-score in [13] and 0.495 E-score in assay [14].

As for CTTGGTCA, the binding signal is -0.084 E-score in [1]; -0.0225 E-score in assay [2]; -0.0252 E-score in [3]; -0.119 E-score in assay [4]; -0.182 E-score in assay [5]; -0.0488 E-score in assay [6]. Moreover, the binding signal in assay [7] was -0.127 E-score; in [8], -0.122 E-score; in assay [9] it was -0.0354 E-score; in [10], -0.113 E-score; in assay [11] it was 0.00324 E-score; in assay [12], 0.0376 E-score. For the same sequence, the binding signal in [13] was -0.145 E-score; in [14], 0.429 E-score.

Turning to ATTCCCCC, the binding signal in assay [1] was -0.0467 E-score; in [2], 0.146 E-score; in assay [3], -0.00677 E-score; in assay [4], -0.109 E-score; in [5], -0.235 E-score; in assay [6] it was -0.0125 E-score. Also, the binding signal in [7] was -0.0556 E-score; in assay [8], -0.0648 E-score; in [9], 0.402 E-score; in assay [10], -0.129 E-score; in assay [11], -0.191 E-score; in assay [12], -0.187 E-score. Moreover, the binding signal in [13] was 0.0523 E-score; in [14] it was -0.288 E-score.

Regarding ATAGGTCA, the binding signal was -0.245 E-score in assay [1]; -0.0494 E-score in [2]; -0.0749 E-score in assay [3]; -0.0219 E-score in assay [4]; -0.0392 E-score in [5]; -0.0474 E-score in assay [6]. The binding signal is -0.0764 E-score in assay [7]; -0.0522 E-score in assay [8]; -0.126 E-score in [9]; -0.217 E-score in assay [10]; 0.00536 E-score in assay [11]; -0.101 E-score in assay [12]. Also, the binding signal in [13] is -0.0841 E-score; in [14], 0.409 E-score.

For TAGGGTCA, the binding signal in assay [1] is -0.167 E-score; in assay [2], -0.107 E-score; in [3] it was -0.151 E-score; in assay [4] it was -0.226 E-score; in assay [5], -0.124 E-score; in [6] it was -0.0495 E-score. The binding signal is -0.158 E-score in assay [7]; -0.0627 E-score in assay [8]; -0.185 E-score in assay [9]; -0.0834 E-score in [10]; -0.121 E-score in assay [11]; -0.157 E-score in assay [12]. Further, the binding signal in [13] amounted to 0.0907 E-score; in [14], 0.42 E-score.
